Data: publication PMC4667695
No constants are given. Whether binding was seen depends on the method and setting. Some results given as binding are weak or reduced against the parent protein; the word gives no strength. Sequences can lack the tags named with a protein.

Chains of the proteins cited; added tags and fusions are not shown.
UniProt P49597: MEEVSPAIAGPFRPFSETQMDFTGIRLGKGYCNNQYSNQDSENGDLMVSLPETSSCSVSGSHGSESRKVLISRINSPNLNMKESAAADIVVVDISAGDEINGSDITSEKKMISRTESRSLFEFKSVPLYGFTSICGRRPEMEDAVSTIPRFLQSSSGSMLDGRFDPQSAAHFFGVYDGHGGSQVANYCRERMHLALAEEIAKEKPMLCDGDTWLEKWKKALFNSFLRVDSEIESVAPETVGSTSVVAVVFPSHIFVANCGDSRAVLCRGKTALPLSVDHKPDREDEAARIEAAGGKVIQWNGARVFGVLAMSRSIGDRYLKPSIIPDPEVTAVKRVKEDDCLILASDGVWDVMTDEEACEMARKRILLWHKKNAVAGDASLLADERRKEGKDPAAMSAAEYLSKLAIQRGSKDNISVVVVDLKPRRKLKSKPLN

How the values were obtained:
Experiment in all cases: two-hybrid; Gal4 system in yeast AH109; PUB12/13 or other genes and ABI1 in pGBKT7 (BD) and pGADT7 (AD); growth on -Trp/-Leu/-His medium, 28 °C, 4-5 days; 30 mM 3-AT where the BD fusion self-activated
[1] = target: T1, PUB12 (yeast two-hybrid fusion, BD) (Arabidopsis thaliana) (UniProt Q9ZV31)
T1 sequence: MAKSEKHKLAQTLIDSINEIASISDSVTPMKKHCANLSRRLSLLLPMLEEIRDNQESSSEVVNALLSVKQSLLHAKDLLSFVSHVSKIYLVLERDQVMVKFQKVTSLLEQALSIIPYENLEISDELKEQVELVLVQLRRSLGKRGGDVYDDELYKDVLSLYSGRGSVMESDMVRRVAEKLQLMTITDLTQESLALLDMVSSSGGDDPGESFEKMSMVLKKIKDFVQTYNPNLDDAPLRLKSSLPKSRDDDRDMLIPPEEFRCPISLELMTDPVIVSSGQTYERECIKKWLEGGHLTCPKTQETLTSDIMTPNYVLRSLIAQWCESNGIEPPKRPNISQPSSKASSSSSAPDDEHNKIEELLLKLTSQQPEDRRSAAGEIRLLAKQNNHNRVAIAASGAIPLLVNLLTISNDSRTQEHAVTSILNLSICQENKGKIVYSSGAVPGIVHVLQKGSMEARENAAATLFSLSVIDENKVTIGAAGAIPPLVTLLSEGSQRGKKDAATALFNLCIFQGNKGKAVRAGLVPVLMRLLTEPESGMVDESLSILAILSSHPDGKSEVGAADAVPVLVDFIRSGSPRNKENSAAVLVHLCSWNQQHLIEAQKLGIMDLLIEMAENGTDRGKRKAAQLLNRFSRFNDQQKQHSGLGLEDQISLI

[2] = target: T2, PUB60 (yeast two-hybrid fusion, BD) (Arabidopsis thaliana) (UniProt O22785)
T2 sequence: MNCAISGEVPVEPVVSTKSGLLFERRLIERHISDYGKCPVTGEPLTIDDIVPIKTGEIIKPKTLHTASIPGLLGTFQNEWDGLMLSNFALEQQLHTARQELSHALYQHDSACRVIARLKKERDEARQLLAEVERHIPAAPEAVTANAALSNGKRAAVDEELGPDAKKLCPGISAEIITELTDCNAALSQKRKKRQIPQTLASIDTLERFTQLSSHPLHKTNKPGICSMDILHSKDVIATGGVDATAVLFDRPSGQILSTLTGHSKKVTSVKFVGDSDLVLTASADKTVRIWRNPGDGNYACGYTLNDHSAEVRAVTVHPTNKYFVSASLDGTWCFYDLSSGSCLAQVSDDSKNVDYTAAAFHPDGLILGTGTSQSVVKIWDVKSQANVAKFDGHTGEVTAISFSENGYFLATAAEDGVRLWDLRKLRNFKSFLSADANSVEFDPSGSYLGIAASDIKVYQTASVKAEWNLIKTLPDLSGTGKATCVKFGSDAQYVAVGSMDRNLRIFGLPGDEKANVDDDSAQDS

[3] = target: T3, PUB44 (yeast two-hybrid fusion, BD) (Arabidopsis thaliana) (UniProt Q9LM76)
T3 sequence: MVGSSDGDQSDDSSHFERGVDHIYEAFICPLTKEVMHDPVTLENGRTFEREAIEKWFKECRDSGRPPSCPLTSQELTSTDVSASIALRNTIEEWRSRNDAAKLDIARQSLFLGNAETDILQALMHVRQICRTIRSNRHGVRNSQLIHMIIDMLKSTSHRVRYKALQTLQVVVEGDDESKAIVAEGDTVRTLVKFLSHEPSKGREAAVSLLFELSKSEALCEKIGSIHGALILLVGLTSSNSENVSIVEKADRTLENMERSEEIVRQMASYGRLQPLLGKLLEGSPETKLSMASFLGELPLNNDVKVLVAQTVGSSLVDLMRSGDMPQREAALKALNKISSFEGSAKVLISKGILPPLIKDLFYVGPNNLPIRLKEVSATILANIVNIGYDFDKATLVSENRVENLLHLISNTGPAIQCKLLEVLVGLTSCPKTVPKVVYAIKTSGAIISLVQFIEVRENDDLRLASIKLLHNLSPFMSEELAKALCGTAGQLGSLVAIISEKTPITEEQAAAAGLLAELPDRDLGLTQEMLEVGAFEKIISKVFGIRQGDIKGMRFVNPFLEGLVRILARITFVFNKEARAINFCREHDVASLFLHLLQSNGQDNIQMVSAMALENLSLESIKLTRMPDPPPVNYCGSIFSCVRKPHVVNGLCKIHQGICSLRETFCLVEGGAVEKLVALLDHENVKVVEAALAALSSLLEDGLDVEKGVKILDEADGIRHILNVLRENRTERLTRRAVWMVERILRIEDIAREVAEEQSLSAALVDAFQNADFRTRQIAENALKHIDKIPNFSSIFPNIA

[4] = target: T4, SDIR1 (yeast two-hybrid fusion, BD) (Arabidopsis thaliana) (UniProt Q9M2S6)
T4 sequence: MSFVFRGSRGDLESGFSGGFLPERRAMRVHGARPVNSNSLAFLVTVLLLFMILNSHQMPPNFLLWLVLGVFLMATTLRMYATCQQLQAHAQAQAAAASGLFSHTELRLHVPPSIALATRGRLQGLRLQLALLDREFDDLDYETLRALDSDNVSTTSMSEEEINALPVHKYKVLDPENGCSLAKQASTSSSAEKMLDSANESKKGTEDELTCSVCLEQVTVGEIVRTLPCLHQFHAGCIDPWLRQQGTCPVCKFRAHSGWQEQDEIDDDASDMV

[5] = target: T5, PUB13 (yeast two-hybrid fusion, BD) (Arabidopsis thaliana) (UniProt Q9SNC6)
T5 sequence: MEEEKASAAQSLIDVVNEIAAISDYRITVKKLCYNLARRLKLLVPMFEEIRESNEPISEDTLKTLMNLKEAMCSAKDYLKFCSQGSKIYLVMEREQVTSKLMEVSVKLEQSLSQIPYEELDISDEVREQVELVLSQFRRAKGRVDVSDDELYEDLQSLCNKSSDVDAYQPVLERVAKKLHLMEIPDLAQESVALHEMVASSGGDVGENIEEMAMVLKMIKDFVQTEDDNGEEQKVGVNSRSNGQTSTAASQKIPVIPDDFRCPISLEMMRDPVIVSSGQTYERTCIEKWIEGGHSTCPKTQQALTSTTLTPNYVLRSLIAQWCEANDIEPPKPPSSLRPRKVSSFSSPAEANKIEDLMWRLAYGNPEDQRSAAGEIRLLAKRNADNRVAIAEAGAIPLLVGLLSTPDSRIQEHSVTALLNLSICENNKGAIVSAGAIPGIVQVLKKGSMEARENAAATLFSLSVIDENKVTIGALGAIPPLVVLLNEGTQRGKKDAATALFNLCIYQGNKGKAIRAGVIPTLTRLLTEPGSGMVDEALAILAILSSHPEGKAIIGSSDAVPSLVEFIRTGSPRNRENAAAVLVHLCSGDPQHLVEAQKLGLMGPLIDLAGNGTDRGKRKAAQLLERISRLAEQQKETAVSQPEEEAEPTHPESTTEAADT

binding [1]: binds
binding [2]: binds
binding [3]: binds
binding [4]: binds
binding [5]: binds
Substance: ABI1 (yeast two-hybrid fusion, AD) (from UniProt P49597 1-434)
